# A lower IC50 marks a more sensitive line; a fit beyond the top or the lowest dose is shown as a bound at that dose. For AUC the same curve is integrated over the 256-fold range of doses and scaled to a fraction: 1 means no effect, lower means more sensitive. For some assays here: The top dose, if marked as inferred, comes from the curve model; the source does not state it.
# Experiments:
# Assay in all cases: Viability of human cancer cell lines after 72 h of drug (GDSC screen)
# Bortezomib = compound: CC(C)C[C@H](NC(=O)[C@H](Cc1ccccc1)NC(=O)c1cnccn1)B(O)O [Bortezomib]; conditions: top dose 0.02 µM
# Description: (§1)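 Human cancer cell lines in 384-well plates, medium with 10% serum, drug for 72 h over a 256-fold dose range (nine 2-fold or five 4-fold steps up to the top dose). Adherent lines were fixed and stained with the nucleic acid dye Syto60, suspension lines read with resazurin; signal relative to control wells, capped at 0 and 100%. One two-parameter sigmoid per drug and line, fitted in a mixed model over all curves with the slope shared within a line.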
# Obatoclax mesylate = compound: COC1=CC(c2cc3ccccc3[nH]2)=N/C1=C\c1[nH]c(C)cc1C [Obatoclax mesylate]; conditions: top dose 16 µM
# Description: as §1
# STF-62247 = compound: Cc1cccc(Nc2nc(-c3ccncc3)cs2)c1 [STF-62247]; conditions: top dose 10.24 µM; top dose inferred
# Description: as §1
# CX-5461 = compound: Cc1cnc(CNC(=O)c2c(=O)c3ccc(N4CCCN(C)CC4)nc3n3c2sc2ccccc23)cn1 [CX-5461]; conditions: top dose 10.24 µM; top dose inferred
# Description: as §1
# Paclitaxel = compound: CC(=O)O[C@H]1C(=O)[C@@]2(C)[C@H]([C@H](OC(=O)c3ccccc3)[C@]3(O)C[C@H](OC(=O)[C@H](O)[C@@H](NC(=O)c4ccccc4)c4ccccc4)C(C)=C1C3(C)C)[C@]1(OC(C)=O)CO[C@@H]1C[C@@H]2O [Paclitaxel]; conditions: top dose 0.1024 µM
# Description: as §1
# CP724714 = compound: COCC(=O)NC/C=C/c1ccc2ncnc(Nc3ccc(Oc4ccc(C)nc4)c(C)c3)c2c1 [CP724714]; conditions: top dose 10.24 µM; top dose inferred
# Description: as §1
Cell Line,AUC (Bortezomib),IC50 (Bortezomib) [nM],AUC (Obatoclax mesylate),IC50 (Obatoclax mesylate) [nM],AUC (STF-62247),IC50 (STF-62247) [nM],AUC (CX-5461),IC50 (CX-5461) [nM],AUC (Paclitaxel),IC50 (Paclitaxel) [nM],AUC (CP724714),IC50 (CP724714) [nM]
"CTV-1 (acute myeloid leukaemia, suspension)",0.582,2,0.129,98,0.893,7980,0.706,2130,0.653,15.5,0.983,> 10200
"CW-2 (large intestine, adherent)",0.988,> 20,0.989,> 16000,0.98,> 10200,0.888,> 10200,0.989,> 102,0.948,> 10200
"D-263MG (glioma, adherent)",0.482,1.1,0.632,2510,0.969,> 10200,0.978,> 10200,0.824,79,0.981,> 10200
"D-283MED (medulloblastoma, adherent)",0.753,6.14,0.522,1140,0.991,> 10200,0.972,> 10200,0.991,> 102,0.987,> 10200
"D-502MG (glioma, adherent)",0.706,6.64,0.754,8370,0.96,> 10200,0.887,> 10200,0.965,> 102,0.95,> 10200
"DB (B-cell lymphoma, suspension)",0.536,1.59,0.306,265,0.682,2210,0.79,5210,0.915,> 102,0.978,> 10200
"DEL (lymphoid neoplasm, suspension)",0.729,4.72,0.231,206,0.993,> 10200,0.926,> 10200,0.568,9.42,0.98,> 10200
"DG-75 (Burkitt lymphoma, suspension)",0.759,7.06,0.741,4940,0.983,> 10200,0.96,> 10200,0.735,30.4,0.983,> 10200
"DJM-1 (skin, adherent)",0.611,2.51,0.244,185,0.988,> 10200,0.989,> 10200,0.536,8.01,0.982,> 10200
"DMS-79 (small cell lung carcinoma, suspension)",0.931,> 20,0.914,> 16000,0.987,> 10200,0.881,> 10200,0.949,> 102,0.98,> 10200
"DND-41 (T-cell leukaemia, suspension)",0.405,0.709,0.115,72.3,0.797,4180,0.436,437,0.876,81.5,0.99,> 10200
"DSH1 (bladder, adherent)",0.299,0.349,0.61,1980,0.989,> 10200,0.989,> 10200,0.978,> 102,0.746,3120
"Daudi (Burkitt lymphoma, suspension)",0.485,1.14,0.127,82.8,0.943,> 10200,0.595,1130,0.647,15.4,0.985,> 10200
"EB2 (Burkitt lymphoma, suspension)",0.868,15.4,0.054,< 62.5,0.947,> 10200,0.919,> 10200,0.982,> 102,0.964,> 10200
"EB-3 (Burkitt lymphoma, suspension)",0.592,2.33,0.262,185,0.89,> 10200,0.923,> 10200,0.898,> 102,0.972,> 10200
"EC-GI-10 (oesophagus, adherent)",0.891,> 20,0.898,> 16000,0.985,> 10200,0.987,> 10200,0.903,> 102,0.989,> 10200
"EKVX (lung adenocarcinoma, adherent)",0.566,2.33,0.542,1480,0.97,> 10200,0.97,> 10200,0.963,> 102,0.943,> 10200
"EM-2 (chronic myeloid leukaemia, suspension)",0.472,1.04,0.652,2800,0.972,> 10200,0.93,> 10200,0.794,54.2,0.974,> 10200
"ES1 (Ewing sarcoma, adherent)",0.887,> 20,0.237,176,0.969,> 10200,0.32,203,0.635,15,0.986,> 10200
"ES3 (Ewing sarcoma, adherent)",0.875,> 20,0.247,178,0.985,> 10200,0.924,> 10200,0.975,> 102,0.898,> 10200
"ES4 (Ewing sarcoma, adherent)",0.573,2.04,0.176,87.4,0.961,> 10200,0.753,3870,0.458,4.84,0.888,> 10200
"ES5 (Ewing sarcoma, adherent)",0.808,12.3,0.374,426,0.91,> 10200,0.66,1920,0.974,> 102,0.968,> 10200

Cell Line,AUC (Bortezomib),IC50 (Bortezomib) [nM],AUC (Obatoclax mesylate),IC50 (Obatoclax mesylate) [nM],AUC (STF-62247),IC50 (STF-62247) [nM],AUC (CX-5461),IC50 (CX-5461) [nM],AUC (Paclitaxel),IC50 (Paclitaxel) [nM],AUC (CP724714),IC50 (CP724714) [nM]
"ES6 (Ewing sarcoma, adherent)",0.114,< 0.0781,0.236,140,0.945,> 10200,0.789,5710,0.731,34.7,0.966,> 10200
"ES7 (Ewing sarcoma, adherent)",0.429,0.794,0.148,77.8,0.933,> 10200,0.442,441,0.982,> 102,0.937,> 10200
"ES8 (Ewing sarcoma, adherent)",0.332,0.442,0.162,103,0.958,> 10200,0.645,1560,0.499,6.38,0.975,> 10200
"ETK-1 (biliary tract, adherent)",0.65,3.46,0.166,80.8,0.886,> 10200,0.543,852,0.351,2.33,0.942,> 10200
"EW-1 (Ewing sarcoma, semi-adherent)",0.741,5.71,0.108,< 62.5,0.966,> 10200,0.671,1840,0.427,4.11,0.952,> 10200
"EW-3 (Ewing sarcoma, adherent)",0.902,> 20,0.652,2820,0.983,> 10200,0.778,4770,0.856,101,0.984,> 10200
"EW-11 (Ewing sarcoma, adherent)",0.921,> 20,0.649,2920,0.98,> 10200,0.804,7000,0.981,> 102,0.98,> 10200
"EW-13 (Ewing sarcoma, suspension)",0.944,> 20,0.224,141,0.915,> 10200,0.745,3520,0.983,> 102,0.983,> 10200
"EW-18 (Ewing sarcoma, suspension)",0.873,> 20,0.233,157,0.985,> 10200,0.81,5870,0.96,> 102,0.982,> 10200
"EW-24 (Ewing sarcoma, semi-adherent)",0.567,1.86,0.338,377,0.918,> 10200,0.993,> 10200,0.84,58.4,0.993,> 10200
"EoL-1-cell (haematopoietic neoplasm, suspension)",0.861,13.8,0.17,118,0.715,2390,0.452,481,0.616,12.8,0.917,> 10200
"GB-1 (glioma, adherent)",0.63,3.06,0.254,171,0.98,> 10200,0.427,389,0.756,40.8,0.978,> 10200
"GCIY (stomach, adherent)",0.52,1.43,0.351,365,0.961,> 10200,0.919,> 10200,0.891,> 102,0.944,> 10200
"GDM-1 (acute myeloid leukaemia, suspension)",0.461,0.982,0.451,741,0.943,> 10200,0.535,793,0.625,13.9,0.976,> 10200
"GI-1 (glioma, adherent)",0.415,0.738,0.309,298,0.968,> 10200,0.821,5610,0.392,3.28,0.982,> 10200
"GI-ME-N (neuroblastoma, adherent)",0.465,0.969,0.611,2260,0.94,> 10200,0.64,1800,0.761,49.2,0.941,> 10200
"GOTO (neuroblastoma, adherent)",0.82,13.5,0.645,2670,0.978,> 10200,0.426,389,0.854,98.3,0.975,> 10200
"GR-ST (lymphoblastic leukaemia, suspension)",0.92,> 20,0.083,< 62.5,0.908,> 10200,0.836,8930,0.79,,0.926,> 10200
"GT3TKB (stomach, adherent)",0.537,1.56,0.22,174,0.984,> 10200,0.976,> 10200,0.336,2.38,0.987,> 10200
"H9 (lymphoid neoplasm, suspension)",0.407,0.731,0.168,128,0.981,> 10200,0.992,> 10200,0.466,5.27,0.974,> 10200
"H-EMC-SS (chondrosarcoma, adherent)",0.819,16,0.64,2730,0.963,> 10200,0.803,6910,0.975,> 102,0.972,> 10200
